# Assay results taken from the supplement of paper PMC4604168 (melanoma cell lines).
# The list shows a part of the results. Most values come without repeats; read them as rough.
# Test system: 501Mel
# Experiment: cell count relative to DMSO control; melanoma cells; higher = more viable cells
# Details: library dose: low library concentration; 72 h
# 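Further: cell number obtained by counting DAPI-stained nuclei in high-throughput microscope images with image analysis software, screen run in 1,536-well plates.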
row,SMILES,cell count [%]
1,"Nc1ccn([C@@H]2O[C@H](CO)[C@@H](O)C2(F)F)c(=O)n1 [gemcitabine] + O=c1cc(-c2cccc3c2Sc2ccccc2S3)oc(N2CCOCC2)c1 [KU55933] (first compound 0.0004 µM, partner dose 1 µM)",118
2,"Nc1nc(F)nc2c1ncn2[C@@H]1O[C@H](CO)[C@@H](O)[C@@H]1O [fludarabine] + Oc1cc(-c2nc(-c3ccccc3)[nH]c2-c2ccncc2)ccc1Cl [L779450] (first compound 0.2 µM, partner dose 0.2 µM)",6.68
3,"Nc1ccn([C@@H]2O[C@H](CO)[C@@H](O)C2(F)F)c(=O)n1 [gemcitabine] + CCN(CC)CCCCNc1ncc2cc(-c3cc(OC)cc(OC)c3)c(NC(=O)NC(C)(C)C)nc2n1 [PD173074] (first compound 0.0004 µM, partner dose 0.1 µM)",106
4,"CC(=O)O[C@@]12CO[C@@H]1C[C@H](O)[C@@]1(C)C(=O)[C@H](O)C3=C(C)[C@@H](OC(=O)[C@H](O)[C@@H](NC(=O)OC(C)(C)C)c4ccccc4)C[C@@](O)([C@@H](OC(=O)c4ccccc4)[C@H]21)C3(C)C [Docetaxel] + CCCCCCCCCCCC1=C(O)C(=O)C=C(O)C1=O [Embelin] (first compound 0.0001 µM, partner dose 1.2 µM)",66.9
5,"Nc1nc(F)nc2c1ncn2[C@@H]1O[C@H](CO)[C@@H](O)[C@@H]1O [fludarabine] + O=c1cc(-c2cccc3c2Sc2ccccc2S3)oc(N2CCOCC2)c1 [KU55933] (first compound 0.2 µM, partner dose 1 µM)",1.52
6,"CO[C@H]1C[C@@H]2CC[C@@H](C)[C@@](O)(O2)C(=O)C(=O)N2CCCC[C@H]2C(=O)O[C@H]([C@H](C)C[C@@H]2CC[C@@H](OCCO)[C@H](OC)C2)CC(=O)[C@H](C)/C=C(\C)[C@@H](O)[C@@H](OC)C(=O)[C@H](C)C[C@H](C)/C=C/C=C/C=C/1C [everolimus] + O=c1cc(-c2cccc3c2Sc2ccccc2S3)oc(N2CCOCC2)c1 [KU55933] (first compound 0.02 µM, partner dose 1 µM)",69
7,"CC(=O)O[C@@]12CO[C@@H]1C[C@H](O)[C@@]1(C)C(=O)[C@H](O)C3=C(C)[C@@H](OC(=O)[C@H](O)[C@@H](NC(=O)OC(C)(C)C)c4ccccc4)C[C@@](O)([C@@H](OC(=O)c4ccccc4)[C@H]21)C3(C)C [Docetaxel] + COc1ccc2c(c1)CCC1C2CCC2(C)C(NCCCCCCN3C(=O)C=CC3=O)CCC12 [U73122] (first compound 0.0001 µM, partner dose 0.4 µM)",75.2
8,"CC(=O)O[C@@]12CO[C@@H]1C[C@H](O)[C@@]1(C)C(=O)[C@H](O)C3=C(C)[C@@H](OC(=O)[C@H](O)[C@@H](NC(=O)OC(C)(C)C)c4ccccc4)C[C@@](O)([C@@H](OC(=O)c4ccccc4)[C@H]21)C3(C)C [Docetaxel] + O=C(O)C(=O)Nc1sc2c(c1C(=O)O)CCNC2 [TCS401] (first compound 0.0001 µM, partner dose 1.66667 µM)",69.4
9,"CO[C@H]1C[C@@H]2CC[C@@H](C)[C@@](O)(O2)C(=O)C(=O)N2CCCC[C@H]2C(=O)O[C@H]([C@H](C)C[C@@H]2CC[C@@H](OCCO)[C@H](OC)C2)CC(=O)[C@H](C)/C=C(\C)[C@@H](O)[C@@H](OC)C(=O)[C@H](C)C[C@H](C)/C=C/C=C/C=C/1C [everolimus] + c1cc(-c2cnn3cc(-c4ccc(OCCN5CCCCC5)cc4)cnc23)ccn1 [Dorsomorphin] (first compound 0.02 µM, partner dose 0.4 µM)",55.9
10,"CC(=O)c1c(C)c2cnc(Nc3ccc(N4CCNCC4)cn3)nc2n(C2CCCC2)c1=O [palbociclib] + Oc1cc(-c2nc(-c3ccccc3)[nH]c2-c2ccncc2)ccc1Cl [L779450] (first compound 0.04 µM, partner dose 0.2 µM)",73
11,"Nc1ncn([C@H]2C[C@H](O)[C@@H](CO)O2)c(=O)n1 [decitabine] + O=C(Nc1ccccc1)c1cc([N+](=O)[O-])ccc1Cl [GW9662] (first compound 0.1 µM, partner dose 2 µM)",73.3
